# Data taken from the supplement of paper PMC8728848.
# The list shows a part of the results.
# B1: TIM1 (protein)
# chain: ADGIQSVKVGGEAGPSVTLPCHYSGAVTSMCWNRGSCSLFTCQNGIVWTNGTHVTYRKDTRYKLLGDLSRRDVSLTIENTAVSDSGVYCCRVEHRGWFNDMKITVSLEIVPPHHHHHH
# Key:
# Assay in all cases: glycan array binding signal (z-score within array); higher = stronger binding
# Conditions in all cases: glycan notation: IUPAC condensed, linker removed
# [1] = molecular target: GlcNAc(b1-4)GlcNAc(b1-4)GlcNAc(b1-4)GlcNAc(b1-4)GlcNAc(b1-4)GlcNAc
# Method in brief: (§1)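 Glycan array data were curated from 3228 arrays in the Consortium for Functional Glycomics database and kept only where the protein sequence was available. Glycan names were converted to IUPAC-condensed notation, and columns mapping to the same glycan were averaged. The binding signal is a within-array Z-score, averaged across arrays of the same protein sequence at different concentrations or buffers and across linkers. Negative Z-scores can be read as non-binding.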
# [2] = molecular target: GlcNAc(b1-4)[GlcNAc(b1-6)]GalNAc
# Method in brief: as §1
# [3] = molecular target: GlcNAc(b1-6)Gal(b1-4)GlcNAc
# Method in brief: as §1
# GlcNAc(b1-6)GalNAc = molecular target: GlcNAc(b1-6)GalNAc
# Method in brief: as §1
# [4] = molecular target: GlcNAc6S(b1-3)Gal(b1-4)GlcNAc
# Method in brief: as §1
# Kdn(a2-3)Gal(b1-3)GalNAc = molecular target: Kdn(a2-3)Gal(b1-3)GalNAc
# Method in brief: as §1
# Kdn(a2-3)Gal(b1-3)GlcNAc = molecular target: Kdn(a2-3)Gal(b1-3)GlcNAc
# Method in brief: as §1
# Kdn(a2-3)Gal(b1-4)Glc = molecular target: Kdn(a2-3)Gal(b1-4)Glc
# Method in brief: as §1
# Kdn(a2-3)Gal(b1-4)GlcNAc = molecular target: Kdn(a2-3)Gal(b1-4)GlcNAc
# Method in brief: as §1
# [5] = molecular target: Kdn(a2-3)Gal(b1-4)[Fuc(a1-3)]GlcNAc
# Method in brief: as §1
# Kdn(a2-6)Gal(b1-4)GlcNAc = molecular target: Kdn(a2-6)Gal(b1-4)GlcNAc
# Method in brief: as §1
# [6] = molecular target: Man(a1-2)Man(a1-2)Man(a1-3)Man
# Method in brief: as §1
# [7] = molecular target: Man(a1-2)Man(a1-2)Man(a1-6)[Man(a1-3)]Man
# Method in brief: as §1
# Man(a1-2)Man(a1-3)Man = molecular target: Man(a1-2)Man(a1-3)Man
# Method in brief: as §1
# [8] = molecular target: Man(a1-2)Man(a1-3)[Man(a1-2)Man(a1-6)]Man
# Method in brief: as §1
# [9] = molecular target: Man(a1-2)Man(a1-3)[Man(a1-2)Man(a1-6)]Man(a1-6)[Man(a1-2)Man(a1-2)Man(a1-3)]Man
# Method in brief: as §1
# [10] = molecular target: Man(a1-2)Man(a1-3)[Man(a1-2)Man(a1-6)]Man(a1-6)[Man(a1-2)Man(a1-2)Man(a1-3)]Man(b1-4)GlcNAc(b1-4)GlcNAc
# Method in brief: as §1
# [11] = molecular target: Man(a1-2)Man(a1-3)[Man(a1-6)]Man(a1-6)[Man(a1-2)Man(a1-3)]Man(b1-4)GlcNAc(b1-4)GlcNAc
# Method in brief: as §1
# [12] = molecular target: Man(a1-2)Man(a1-6)[Man(a1-3)]Man(a1-6)[Man(a1-2)Man(a1-2)Man(a1-3)]Man
# Method in brief: as §1
# [13] = molecular target: Man(a1-2)Man(a1-6)[Man(a1-3)]Man(a1-6)[Man(a1-2)Man(a1-2)Man(a1-3)]Man(b1-4)GlcNAc(b1-4)GlcNAc
# Method in brief: as §1
# Man(a1-3)[Man(a1-6)]Man = molecular target: Man(a1-3)[Man(a1-6)]Man
# Method in brief: as §1
# [14] = molecular target: Man(a1-3)[Man(a1-6)]Man(a1-6)[Man(a1-2)Man(a1-3)]Man(b1-4)GlcNAc(b1-4)GlcNAc
# Method in brief: as §1
# [15] = molecular target: Man(a1-3)[Man(a1-6)]Man(a1-6)[Man(a1-3)]Man
# Method in brief: as §1
# [16] = molecular target: Man(a1-3)[Man(a1-6)]Man(a1-6)[Man(a1-3)]Man(b1-4)GlcNAc(b1-4)GlcNAc
# Method in brief: as §1
# [17] = molecular target: Man(a1-3)[Man(a1-6)]Man(b1-4)GlcNAc(b1-4)GlcNAc
# Method in brief: as §1
# [18] = molecular target: Man(a1-3)[Man(a1-6)]Man(b1-4)GlcNAc(b1-4)[Fuc(a1-6)]GlcNAc
# Method in brief: as §1
# Man(a1-6)Man = molecular target: Man(a1-6)Man
# Method in brief: as §1
# Man(b1-4)GlcNAc = molecular target: Man(b1-4)GlcNAc
# Method in brief: as §1
# MurNAc(b1-4)GlcNAc = molecular target: MurNAc(b1-4)GlcNAc
# Method in brief: as §1
# Neu5Ac(a2-3)Gal = molecular target: Neu5Ac(a2-3)Gal
# Method in brief: as §1
# [19] = molecular target: Neu5Ac(a2-3)Gal(b1-3)GalNAc
# Method in brief: as §1
# [20] = molecular target: Neu5Ac(a2-3)Gal(b1-3)GalNAc(b1-3)Gal(a1-4)Gal(b1-4)Glc
# Method in brief: as §1
# [21] = molecular target: Neu5Ac(a2-3)Gal(b1-3)GalNAc(b1-4)[Neu5Ac(a2-3)]Gal(b1-4)Glc
# Method in brief: as §1
# [22] = molecular target: Neu5Ac(a2-3)Gal(b1-3)GalNAc(b1-4)[Neu5Ac(a2-8)Neu5Ac(a2-3)]Gal(b1-4)Glc
# Method in brief: as §1
# [23] = molecular target: Neu5Ac(a2-3)Gal(b1-3)GalNAc6S
# Method in brief: as §1
# [24] = molecular target: Neu5Ac(a2-3)Gal(b1-3)GlcNAc
# Method in brief: as §1
# [25] = molecular target: Neu5Ac(a2-3)Gal(b1-3)GlcNAc(b1-2)Man
# Method in brief: as §1
# [26] = molecular target: Neu5Ac(a2-3)Gal(b1-3)GlcNAc(b1-2)Man(a1-3)[GlcNAc(b1-4)][Neu5Ac(a2-3)Gal(b1-3)GlcNAc(b1-2)Man(a1-6)]Man(b1-4)GlcNAc(b1-4)GlcNAc
# Method in brief: as §1
# [27] = molecular target: Neu5Ac(a2-3)Gal(b1-3)GlcNAc(b1-2)Man(a1-3)[Neu5Ac(a2-3)Gal(b1-3)GlcNAc(b1-2)Man(a1-6)]Man(b1-4)GlcNAc(b1-4)GlcNAc
# Method in brief: as §1
# [28] = molecular target: Neu5Ac(a2-3)Gal(b1-3)GlcNAc(b1-3)Gal(b1-3)GlcNAc
# Method in brief: as §1
# [29] = molecular target: Neu5Ac(a2-3)Gal(b1-3)GlcNAc(b1-3)Gal(b1-4)GlcNAc
# Method in brief: as §1
# [30] = molecular target: Neu5Ac(a2-3)Gal(b1-3)GlcNAc(b1-3)GalNAc
# Method in brief: as §1
# [31] = molecular target: Neu5Ac(a2-3)Gal(b1-3)GlcNAc(b1-4)Gal(b1-4)Glc
# Method in brief: as §1
# [32] = molecular target: Neu5Ac(a2-3)Gal(b1-3)GlcNAc(b1-6)GalNAc
# Method in brief: as §1
# [33] = molecular target: Neu5Ac(a2-3)Gal(b1-3)GlcNAc6S
# Method in brief: as §1
binder,measurement,setting,value
B1,glycan array binding signal (z-score),[1],-0.196
same,glycan array binding signal (z-score),[2],-0.196
same,glycan array binding signal (z-score),[3],-0.288
same,glycan array binding signal (z-score),GlcNAc(b1-6)GalNAc,-0.196
same,glycan array binding signal (z-score),[4],-0.142
same,glycan array binding signal (z-score),Kdn(a2-3)Gal(b1-3)GalNAc,0.111
same,glycan array binding signal (z-score),Kdn(a2-3)Gal(b1-3)GlcNAc,-0.158
same,glycan array binding signal (z-score),Kdn(a2-3)Gal(b1-4)Glc,0.036
same,glycan array binding signal (z-score),Kdn(a2-3)Gal(b1-4)GlcNAc,-0.254
same,glycan array binding signal (z-score),[5],-0.116
same,glycan array binding signal (z-score),Kdn(a2-6)Gal(b1-4)GlcNAc,-0.063
same,glycan array binding signal (z-score),[6],-0.236
same,glycan array binding signal (z-score),[7],-0.274
same,glycan array binding signal (z-score),Man(a1-2)Man(a1-3)Man,-0.239
same,glycan array binding signal (z-score),[8],-0.292
same,glycan array binding signal (z-score),[9],-0.26
same,glycan array binding signal (z-score),[10],-0.213
same,glycan array binding signal (z-score),[11],-0.202
same,glycan array binding signal (z-score),[12],-0.199
same,glycan array binding signal (z-score),[13],-0.285
same,glycan array binding signal (z-score),Man(a1-3)[Man(a1-6)]Man,-0.233
same,glycan array binding signal (z-score),[14],0.218
same,glycan array binding signal (z-score),[15],-0.149
same,glycan array binding signal (z-score),[16],-0.168
same,glycan array binding signal (z-score),[17],-0.147
same,glycan array binding signal (z-score),[18],-0.082
same,glycan array binding signal (z-score),Man(a1-6)Man,-0.034
same,glycan array binding signal (z-score),Man(b1-4)GlcNAc,-0.175
same,glycan array binding signal (z-score),MurNAc(b1-4)GlcNAc,-0.251
same,glycan array binding signal (z-score),Neu5Ac(a2-3)Gal,-0.22
same,glycan array binding signal (z-score),[19],0.3
same,glycan array binding signal (z-score),[20],-0.249
same,glycan array binding signal (z-score),[21],-0.178
same,glycan array binding signal (z-score),[22],-0.213
same,glycan array binding signal (z-score),[23],-0.243
same,glycan array binding signal (z-score),[24],-0.239
same,glycan array binding signal (z-score),[25],-0.28
same,glycan array binding signal (z-score),[26],-0.235
same,glycan array binding signal (z-score),[27],-0.25
same,glycan array binding signal (z-score),[28],-0.26
same,glycan array binding signal (z-score),[29],-0.267
same,glycan array binding signal (z-score),[30],-0.228
same,glycan array binding signal (z-score),[31],-0.155
same,glycan array binding signal (z-score),[32],0.039
same,glycan array binding signal (z-score),[33],-0.234
